Laboratory results published in publication PMC4538817.
These are yes or no findings as the source states them, for the method shown. In cells and extracts the contact can be indirect. Some binding calls cover weakened binding; strength is not graded here. Tags and fused reporters may be left off the sequences shown.

Chains of the proteins cited; added tags and fusions are not shown.
UniProt Q9Y6K9: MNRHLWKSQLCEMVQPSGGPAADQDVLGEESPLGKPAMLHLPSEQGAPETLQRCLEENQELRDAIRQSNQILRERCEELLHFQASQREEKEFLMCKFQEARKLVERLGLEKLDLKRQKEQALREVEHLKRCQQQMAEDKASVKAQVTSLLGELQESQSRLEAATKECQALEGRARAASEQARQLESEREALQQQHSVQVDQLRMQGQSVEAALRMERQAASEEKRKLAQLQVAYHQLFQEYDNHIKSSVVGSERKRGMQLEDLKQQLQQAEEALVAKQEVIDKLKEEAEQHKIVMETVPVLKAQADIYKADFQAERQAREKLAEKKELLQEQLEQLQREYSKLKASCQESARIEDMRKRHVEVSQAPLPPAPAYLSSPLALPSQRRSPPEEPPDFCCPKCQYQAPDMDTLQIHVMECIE

Target: T1, Flag-FKBP51 (pRK5 FKBP51 WT) (UniProt Q13451)
T1 sequence: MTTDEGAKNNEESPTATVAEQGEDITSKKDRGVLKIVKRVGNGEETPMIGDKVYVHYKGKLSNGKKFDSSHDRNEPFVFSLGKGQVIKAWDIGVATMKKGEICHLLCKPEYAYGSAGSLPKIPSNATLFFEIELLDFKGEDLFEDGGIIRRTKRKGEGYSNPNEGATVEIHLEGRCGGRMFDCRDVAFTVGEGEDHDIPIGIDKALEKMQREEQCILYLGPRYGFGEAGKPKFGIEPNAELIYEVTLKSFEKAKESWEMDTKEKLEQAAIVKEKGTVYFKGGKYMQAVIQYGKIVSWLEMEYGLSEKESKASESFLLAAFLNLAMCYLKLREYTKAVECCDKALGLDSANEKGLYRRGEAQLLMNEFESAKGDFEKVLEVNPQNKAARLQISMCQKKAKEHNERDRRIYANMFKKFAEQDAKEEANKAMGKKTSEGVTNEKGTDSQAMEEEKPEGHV
Assay: co-IP; HEK293T (legends: HEK293) co-transfected with Flag-FKBP51 or its mutants and HA-tagged partners; anti-Flag immunoprecipitation, blot with anti-HA, anti-TRAF2 or anti-IKKα/β; RIPA buffer; with or without FK506 (Figure 3B); the precipitating antibody is not told for Figures 3B and 4B

## HA-tagged human IKKγ (from UniProt Q9Y6K9 1-419)
  binding: binds
